PubChem BioAssay AID686979 (National Center for Advancing Translational Sciences (NCATS), 2013)
Out of some 420,000 compounds screened, about 50,000 (12%) were called active. This list was built around the results that the source calls inconclusive (neither active nor inactive); the mix of calls is not that of the screen. Calls come from the whole dose curve; as a rule, active = well fitted inhibition curve with a large enough effect; inconclusive = small, poorly fitted or top-dose-only effect; inactive = flat fitted curve, though single readings scatter. No potency is given beside an inconclusive call; the fits are too rough.

test: qHTS for Inhibitors of human tyrosyl-DNA phosphodiesterase 1 (TDP1): qHTS in cells in presence of CPT; settings: chicken DT40 Tdp1-/-;hTDP1 cells + 20 nM CPT, ATP luminescence, 48 h; activity change, negative = growth inhibition: at 46.2 µM (top of the series) unless noted; note: nearly all actives have a fitted effect of over 55% in size
Summary of the method: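 Chicken DT40 Tdp1-/- cells complemented with human TDP1, 400 cells/well, exposed to compounds plus 20 nM camptothecin for at least 48 h at 37 C; viability read as ATP content by CellTiter-Glo luminescence.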
% is set by controls: 0 for no effect and ±100 for the full control effect; potency is the fitted concentration of half-maximal effect; tags give direction and shape of the fitted curve.

SMILES	Potency	activity change, negative = growth inhibition
COC(=O)[C@@]12C[C@@H](CC(=O)N3CCCCC3)C(=O)N(CCc3ccc(OC)c(OC)c3)C1=CCC(C)(C)C2	inconclusive [inhibitor, single point]	
Cn1c(=O)c2c(nc(N3CCc4ccccc4C3)n2Cc2ccccc2F)n(C)c1=O	active: 12.6 µM	
CCOC(=O)N1CCN(S(=O)(=O)CCNC(=O)c2ccccc2)CC1	inactive	
Cc1ccc2cc(CN(CC3CCCO3)S(=O)(=O)c3cccc4nsnc34)c(=O)[nH]c2c1 (stereo not given)	inconclusive [inhibitor, single point]	
O=C(c1ccc2c(c1)N(Cc1ccccc1)C(=O)c1ccccc1S2(=O)=O)N1CCC(Cc2ccccc2)CC1	active: 8.2 µM	
Cc1cc(C)c(NC(=O)Cn2nnc3sc4c(c3c2=O)CCC(C(C)(C)C)C4)c(C)c1 (stereo not given)	active: 14.6 µM	
CCc1nc(NCc2cccs2)c2nnn(Cc3ccccc3)c2n1	inconclusive [inhibitor, single point]	
CC1(C(=O)Nc2ccc3[nH]ncc3c2)CCN1C(=O)Cc1ccc(-c2ccccc2)cc1 (stereo not given)	active: 16.4 µM	
Cc1coc2cc3oc(=O)c(CCC(=O)N4CCC(C(=O)O)(c5ccccc5)CC4)c(C)c3cc12	inactive	
COc1cccc(CN(C)CC(=O)Nc2cccc(S(=O)(=O)N(C)c3ccccc3)c2)c1OC	inconclusive [inhibitor, single point]	
CCCS(=O)(=O)C(=C(Nc1ccc(OC)cc1)Nc1ccc(OC)cc1)S(=O)(=O)CCC	inconclusive [inhibitor, single point]	
Cc1ccccc1CN1C(=O)C(O)(c2c[nH]c3ccccc23)c2cc(Cl)ccc21 (stereo not given)	active: 16.4 µM	
COc1ccc2c(c1)c(=O)oc1cc(OCC(=O)NC3CCCCC3)ccc12	inconclusive [inhibitor, single point]	
CCOC(=O)C1(Cc2cccc(OC)c2)CCN(C(C)CC(C)(C)O)CC1 (stereo not given)	inactive	
Cc1cccc(N2CCN(S(=O)(=O)c3ccc4c(c3)C(C)(C)C(=O)N4C)CC2C)c1 (stereo not given)	inconclusive [inhibitor, single point]	
CCCCC(=O)NCc1ccc(Cl)cc1	inactive	
COc1ccc(C(=O)N2CC3(C)CC2CC(C)(C)C3)cc1 (stereo not given)	inconclusive [inhibitor, partial curve]	
CNc1nnc(-c2ccc(C)cc2)c2ccccc12	inconclusive [inhibitor, single point]	
COc1cccc(C(=O)N(C)CC(=O)Nc2ccc(F)c(F)c2F)c1	inactive	
Cc1ccc(NC(=O)C/C(N)=N/OC(=O)Nc2ccc(C)c(Cl)c2)cc1	inactive	
CC(=O)NC(CC(=O)N1CCN(C(C)=O)CC1)c1ccccc1 (stereo not given)	inactive	
COc1cc(Cl)ccc1NC(=O)COc1ccccc1C(=O)NN	inconclusive [inhibitor, single point]	
Cc1ccc(CNC(=O)c2cccc3c2C(=O)c2ccc(N4CCC(C)CC4)cc2S3(=O)=O)cc1	inconclusive [inhibitor, single point]	
CC(=O)NCc1ccc(S(=O)(=O)N/N=C/c2ccc(Br)cc2)cc1		inconclusive: -31.6% [inhibitor]

SMILES	Potency	activity change, negative = growth inhibition
Cc1nn(CC(=O)NNC(=O)c2ccc(Br)cc2)c(C)c1[N+](=O)[O-]	inactive	
Cc1ccc2nc(N/N=C\c3ccc([N+](=O)[O-])o3)nc(-c3ccccc3)c2c1	active: 23.1 µM	
O=C(NCc1ccco1)c1cccc(S(=O)(=O)N2CCN(Cc3ccccc3)CC2)c1	inactive	
Cc1ccc(Oc2cc([N+](=O)[O-])cc3c2C(=O)Nc2ccccc2O3)cc1	inconclusive [inhibitor, partial curve]	
Cc1cccc(-c2noc(CCCC(=O)N3CCOCC3)n2)c1	inactive	
N=c1n(CCO)c2ccccc2n1CCOc1ccccc1	inconclusive [inhibitor, partial curve]	
Cc1nc2nc(SCC(=O)NCCCN3CCCC3)nn2c(C)c1Cc1ccccc1Cl	inconclusive [inhibitor, single point]	
COc1ccc(-c2csc(Nc3cccc(C)n3)n2)cc1	inconclusive [inhibitor, single point]	
CCOC(=O)c1sc(NC(=O)CCN2C(=O)c3ccccc3C2=O)c(C(=O)OCC)c1C		inconclusive: -30.3% [inhibitor]
CC(=O)Oc1ccccc1C1=NN(C(=O)/C=C/c2ccccc2)C(c2ccccc2)C1 (stereo not given)	inconclusive [inhibitor, single point]	
O=C(NCc1ccccc1)c1ccc(S(=O)(=O)C(F)F)cc1	inactive	
c1ccc(NC2=NCCN2CCCC2CCCC2)cc1	inconclusive [inhibitor, single point]	
Cc1cccc(C)c1N1CCN(S(=O)(=O)c2ccc(F)cc2)CC1	inconclusive [inhibitor, single point]	
COc1ccccc1-c1cc(NCc2cccc(C)c2)ncn1	active: 13 µM	
C=C(C)COc1ccc(-c2[nH]ncc2-c2ccc(OC)c(OC)c2)c(O)c1	active: 1.46 µM	
O=C(NCc1ccc(Cl)cc1)c1cc2cccc3c2n1CCS3	inconclusive [inhibitor, single point]	
CC1CCCN(C(=O)c2ccc(CSc3nc4ccncc4n3Cc3ccccc3)cc2)C1 (stereo not given)	active: 16.4 µM	
COc1cccc(/C=N/Nc2nn3cnnc3c3ccccc23)c1	active: 13 µM	
CCOc1cc(S(=O)(=O)NCc2cccs2)ccc1Cl	inconclusive [inhibitor, single point]	
CC(C)(C)NC(=O)Cn1cc(S(=O)(=O)Cc2ccccc2Cl)c2ccccc21	inconclusive [inhibitor, single point]	
CCOC(=O)/C(C#N)=C/c1ccc(N2CCN(Cc3ccccc3)CC2)cc1	inconclusive [inhibitor, single point]	
Cc1cccc(-n2c(=O)c3c(c4cc(C)ccc4n3C)n(CC(=O)Nc3ccc(C)c(C)c3)c2=O)c1	inactive	
Cc1cc2ccccc2n1CCNC(=O)C1CCCCC1	inconclusive [inhibitor, single point]	
Cc1nc2ccccc2c2oc(C(=O)N3CCN(C(=O)c4ccco4)CC3)cc12	inconclusive [inhibitor, single point]	

SMILES	Potency	activity change, negative = growth inhibition
O=C(CCC1CCCN(C(=O)c2ccoc2)C1)NCc1ccccc1F (stereo not given)		inconclusive: -31.3% [inhibitor]
CCOC(=O)[C@]12CCC=C1N(Cc1cccc3ccccc13)C(=O)[C@H](CC(=O)NCCC(C)C)C2	active: 23.1 µM	
COc1ccc(C2CC(c3cccc(Cl)c3)=NN2c2ccc(S(N)(=O)=O)cc2)cc1 (stereo not given)	inconclusive [inhibitor, single point]	
CC1CC(C)CN(CCC(=O)Nc2ccc(Br)cc2)C1 (stereo not given)	inconclusive [inhibitor, single point]	
COc1ccc2cc3c(N)c(C(=O)N4CCCC4)sc3nc2c1	inconclusive [inhibitor, single point]	
C=CCn1cc(C(=O)N2CCN(c3ccccc3)CC2)c(=O)c2cc(S(=O)(=O)N3CCCC3)ccc21	inconclusive [inhibitor, single point]	
CCOC(=O)c1[nH]c(C)c(C(=O)OC(C)C(=O)Nc2ncc(Cl)cc2Cl)c1C (stereo not given)	active: 17.8 µM	
COc1ccc(C)cc1NS(=O)(=O)c1ccc2c(c1)CCCN2C(C)=O	inconclusive [inhibitor, single point]	
Cc1ccnc2nc(C(=O)OCC(=O)N(Cc3ccccc3)C(C)(C)C)nn12		inconclusive: -44.1% [inhibitor]
COc1ccccc1Cc1c(-c2ccc(OC)c(OC)c2)nc2cc(C)c(Br)c(C)n12	inconclusive [inhibitor, single point]	
CCCCCC(=O)N1C[C@@H](O)[C@H](n2cc(COC(=O)c3ccccc3)nn2)C[C@@H]1c1ccc(Cl)cc1	inactive	
Cc1cc(C)cc(NCc2cc(=O)oc3cc(C)c(O)cc23)c1	inconclusive [inhibitor, partial curve]	
Cn1c(=O)[nH]c(=O)c2c1nc(Br)n2CCSc1nnnn1-c1ccccc1	inconclusive [inhibitor, partial curve]	
CCOC(=O)Cn1c(=N)n(CCOc2ccc(OC)cc2)c2ccccc21	inactive	
Cn1c(=O)c2c(nc(Sc3ncccn3)n2Cc2ccc(Cl)cc2)n(C)c1=O	active: 11.6 µM	
Cc1nc(N2CCN(c3ccccn3)CC2)c2c(C)c(C(=O)Nc3ccc(Br)cc3C)sc2n1	active: 16.4 µM	
COc1ccc(-c2nc(SCC(=O)NCC3CCCO3)c(-c3ccc(C)cc3)[nH]2)cc1OC (stereo not given)	inconclusive [inhibitor, single point]	
CCOc1ccc2nc(SCC(=O)c3ccc(Cl)s3)sc2c1		inconclusive: -30.5% [inhibitor]
CCCC(=O)Nc1ccc(Cl)c(NC(=S)NC(=O)c2ccco2)c1	inconclusive [inhibitor, partial curve]	
CC(C)(C)S(=O)(=O)/C(C#N)=N/Nc1ccc(Cl)cc1	inconclusive [inhibitor, single point]	
C=CCn1c(-c2ccc(Cl)cc2)c[nH]c1=S	inactive	
O=C1C=C(Nc2ccc(Cl)cc2)CC(c2ccc(Cl)cc2)C1 (stereo not given)		inconclusive: -35% [inhibitor]
